Laboratory results reported in the supplement of paper PMC5499739.
Whole data set: some 16,000 sequences, median “Z-score” near -0.37, cut for the highest 2% near 3.2. The list shows a part of the results.

Tested on: RBM10 RRM1-ZnF (GST-tagged construct)
Test: RNAcompete 7-mer binding Z-score; higher = stronger binding preference
In short: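 A one-sided Z-score for enrichment, taken across the probes containing each heptamer motif, was assigned to every such motif. The RNA came from a designed pool of 241 399 sequences up to 41 nt (1.5 nmol), bound by 20 pmol of GST-tagged RBM10 constructs in 1 ml Hepes pH 7.8 buffer with glutathione Sepharose beads for 30 min at 4°C. Four 2-min washes at 4°C preceded identification of bound RNA by microarray hybridisation.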

Sequence | RNAcompete 7-mer binding Z-score
GGGGAUC | 2.29
UUGGUUG | 0.917
UUUCCGG | -0.509
GGCGGUA | 1.48
UCGGGCG | 1.09
ACUUGUA | -0.649
GAUAGAG | 1.58
UAGUACC | -0.769
AGUCCGG | -0.00246
GCCCGAG | -0.295
CAGUAAU | -0.314
GCUCCGC | -0.506
UUUGGUU | 0.482
GCAUGGA | 2.01
GCCUACA | -0.828
UCUGAAU | -0.759
CCUGCGU | -0.522
UCCCUCC | -0.457
CUACUGG | -0.233
CGCUGAU | -0.483
ACAUUUA | -0.694
UACAGCG | -0.168
AAAAGAG | 0.855

Sequence | RNAcompete 7-mer binding Z-score
GACUGAG | 0.381
AUUAAUC | -0.552
UUAUGCG | -0.402
GCGCGCG | 0.579
UGGCUAG | 0.391
CCCAUUG | -0.704
UAAUGUA | -0.0707
AGGGAAC | 2.57
UCUUCCU | -0.691
CAAAUGG | 0.852
CCUACUC | -0.698
GUUUACC | -0.467
GCGUUCU | -0.629
GUCUCAC | -0.629
GUCAAUA | -0.305
CAGAAAG | 0.566
AUAAGAU | -0.175
CGACUCU | -0.766
GACACGC | -0.522
AAAAGAC | -0.201
AUCAGGA | 0.923
AGCUCGA | -0.285
AGUACUA | -0.24

Sequence | RNAcompete 7-mer binding Z-score
ACGAGAG | 0.725
CCGUAGC | -0.737
GGUUCUU | -0.269
CUAGGGC | 0.667
GACAGUU | -0.207
CAAGGUC | -0.00246
CGGACCG | -0.428
GAUACGA | 0.0723
CGAAACG | -0.253
GUAUACA | 0.0593
AAGCCAU | -0.886
CGUCCAA | -0.604
UGCAAUA | -0.448
AUCAGUG | 0.173
UGUCUUC | -0.685
CUACUCA | -0.685
CUGUUUU | -0.841
AUCAGCG | -0.23
GGACGCA | 0.465
AGCAGGG | 3.04
GUGCAUG | 0.807
CGGUCGC | -0.0772
UGAGUGG | 2.58

Sequence | RNAcompete 7-mer binding Z-score
UCAGAUG | 0.0268
CAGUAGC | -0.422
UCUUCUC | -0.85
AGAUAGA | 0.251
AAGCCUU | -0.938
UCAUUAG | -0.357
GUCGCAU | -0.275
AUAGUCC | -0.681
GGAUCUU | -0.194
CAAAGGC | -0.106
CUGAGCG | 0.296
ACGAGUG | 0.872
ACAGAUC | -0.578
UAGACCU | -0.668
UCUGUUC | -0.74
GACCGCU | -0.821
CGAUACC | -0.574
UAACGAC | -0.649
UCAAUUC | -0.818
CUGGUAG | 0.657
AGAUCGC | -0.75
UUUACAG | -0.454
UUACCCC | -0.698

Sequence | RNAcompete 7-mer binding Z-score
UCAGCGG | 0.309
AUAUAUC | -0.503
UGGCAAA | 0.777
GCAAUCA | -0.37
UAACGGC | -0.272
UAUUGUC | -0.584
GUUCAUC | -0.662
GCUUCGA | -0.581
UUUGUCC | -0.776
UACAGUU | -0.503
GAGCGCU | -0.477
CGGUAGU | 0.287
UGGAAUU | 0.732
UCUUGGA | -0.223
AAGACGC | -0.0609
CAUUUUU | -0.997
GUGCCAU | -0.503
AUCAACU | -0.662
UGUAUAU | -0.318
CACUGCU | -0.86
UCGCAGG | 0.355
ACCCUAC | -0.795
CAUGCCC | -0.681

Sequence | RNAcompete 7-mer binding Z-score
CUGUUUC | -0.711
UGCUUUC | -0.772
GGGAUUG | 3.5
UUCGCGU | -0.578
GCUGCAC | -0.272
AGUGUAA | 0.553
CUUCACC | -0.785
ACGGUGU | 1
GUUGUAA | 0.147
GUGAGCG | 1.86
GUGGACG | 2.17
UGGGGAC | 3.17
CGGCGAA | 0.313
UAAUUCG | -0.451
CGUCGCA | -0.477
AUGGACG | 2.69
GUUAACU | -0.321
GAUUCUC | -0.649
GAUGGCC | -0.0544
AGAAAUG | 1.12
AGAGAUC | -0.422
GUCAACC | -0.672
GUCAUCU | -0.675

Sequence | RNAcompete 7-mer binding Z-score
UAGACUC | -0.73
UGCGCGU | -0.119
CUUACCG | -0.75
GAAAUAA | -0.259
UCCUAUC | -0.857
UCAGCCA | -0.659
UAGUAAA | -0.129
UAAGGUU | 2.04
UUGGUUU | 0.92
CAGGCGC | 0.0365
CGUAGCC | -0.6
CGGAGUC | 0.147
UAAUUUG | -0.513
UUUUGAA | -0.61
CACGUAA | -0.35
UUCCAUA | -0.763
UUUUAAG | -0.571
UGAUAAG | 0.244
CCAGGGU | 1.29
GACACGU | -0.24
CUUAUGG | -0.262
GUGGAAC | 1.61
AGGUCUA | -0.288

Sequence | RNAcompete 7-mer binding Z-score
GUCGGGG | 2.71
AAUAUCG | -0.392
CUUAACC | -0.828
AUCGAGC | -0.34
AAUUUUG | -0.642
UGGGAGC | 2.86
CCAGGCG | 0.192
CGCAAUC | -0.665
GCGGCUU | -0.178
UUGACAA | -0.548
AUGUUUG | 0.176
ACGUAAU | -0.529
GAAAGAC | 0.0885
CAACCAC | -0.642
UUAUAAU | -0.448
UGACCUG | -0.668
CAAGGCC | -0.331
ACUUCGA | -0.626
CUUUCCG | -0.85
AGUAUAG | 0.716
UAAUUUA | -0.655
GCUUAAG | -0.158
AUCCGAU | -0.717
